The text below walks through data of the supplement of paper PMC9446081.

The whole screen tested about 39,000 compounds, of which about 220 (0.56%) showed activity. The list shows a part of the results.
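Also: static incubation at 37 °C against the wild-type strain, values averaged over two biological replicates.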

The test system of this experiment is Escherichia coli K-12 BW25113. In words: relative growth (OD600 normalised to plate interquartile mean) (fraction); higher = less growth inhibition, active = 0.2 or less. The conditions noted are these: 50 µM; LB; incubation time: overnight (16-24 h).
Consider `O=C(C[C@@H]1CC[C@H]2[C@@H](COC[C@H](O)CN2S(=O)(=O)c2ccc(Oc3ccccc3)cc2)O1)NCCN1CCCCC1`, for which the relative growth is inactive: 0.999.

For `Cn1c(=O)c(C(=O)NCCO)c(O)c2ccccc21`, the relative growth was inactive: 0.919.

Consider `O=C(Nc1ccc2ccccc2c1)c1ccc(Cl)cc1Cl`, for which the relative growth is inactive: 1.01.

With `C[C@@H]1CN([C@H](C)CO)S(=O)(=O)c2ccc(C#Cc3cccnc3)cc2O[C@H]1CN(C)CC1CCOCC1`, the relative growth is inactive: 1.01.

As for `C[C@H]1CN([C@@H](C)CO)C(=O)c2c(c3ccccc3n2C)-c2ccccc2CO[C@H]1CN(C)Cc1ccc(C(F)(F)F)cc1`, the relative growth was inactive: 1.05.

On to `C[C@@H]1CN([C@H](C)CO)C(=O)Cc2cc(NC(=O)NC3CCCCC3)ccc2O[C@@H]1CN(C)C(=O)Nc1ccc(C(F)(F)F)cc1`, for which the relative growth was inactive: 0.99.

With `Cc1ccc(S(=O)(=O)N(C)C[C@H]2Oc3ccc(N(C)C)cc3CC(=O)N([C@H](C)CO)C[C@H]2C)cc1`, the relative growth was inactive: 1.

Take `OCCN1CCN(c2ncnc3c2ncn3[C@H]2CN(Cc3ccc(F)cc3)C[C@@H](CO)O2)CC1`: the relative growth is inactive: 0.979.

On to `Cc1noc(C)c1S(=O)(=O)Nc1ccc2c(c1)C(=O)N([C@@H](C)CO)C[C@H](C)[C@H](CN(C)C(=O)Nc1ccc3c(c1)OCO3)O2`, for which the relative growth is inactive: 1.03.

`COc1cc(-c2coc3cc(O)c(OC)c(O)c3c2=O)cc(O)c1OC`: the relative growth was inactive: 1.

`NCc1nnc2n1CCC2`: the relative growth is inactive: 0.993.

Consider `C[C@H](CO)N1C[C@H](C)[C@@H](CN(C)S(=O)(=O)c2cn(C)cn2)Oc2cc(C#Cc3ccc(F)cc3)ccc2S1(=O)=O`, for which the relative growth is inactive: 0.994.

In the case of `C[C@H](CO)N1C[C@H](C)[C@@H](CN(C)Cc2ccc(Cl)c(Cl)c2)OCCCC[C@H](C)Oc2ccc(N(C)C)cc2C1=O`, the relative growth was inactive: 1.

As to `O=c1cccc(C=Cc2ccc3c(c2)OCO3)o1` ["6-(3,4-METHYLENEDIOXYSTYRYL)-alpha-PYRONE"], the relative growth is inactive: 1.06.

As for `COc1ccc(cc1)CN1C[C@]2(CCN(CC2)Cc2ccccc2OC)c2c([nH]c3cc(ccc23)OC)[C@@H]1CO`, the relative growth was inactive: 1.

With `COCC(=O)Nc1ccc2c(c1)C(=O)N(C)[C@@H]1CC[C@H](CC(=O)NC3Cc4ccccc4C3)O[C@H]1CO2`, the relative growth is inactive: 0.98.

For `C[C@@H]1CCCCO[C@H](CN(C)C(=O)c2ccccc2)[C@H](C)CN([C@@H](C)CO)C(=O)c2cc(NC(=O)Cc3ccccc3)ccc2O1`, the relative growth is inactive: 1.01.

Consider `CCCCCCOC(=O)/N=C(/N)c1ccc(NCc2nc3cc(C(=O)N(CCC(=O)OCC)c4ccccn4)ccc3n2C)cc1`, for which the relative growth was inactive: 0.942.

Take `COc1ccc(NC(=O)Nc2ccc3c(c2)C(=O)N([C@H](C)CO)C[C@H](C)[C@@H](CN(C)S(=O)(=O)c2ccccc2)OCCCC[C@H](C)O3)cc1`: the relative growth is inactive: 1.03.

Regarding `CS(=O)(=O)N1CCS(=O)(=O)[C@H]2CCN(CC3CC3)CC[C@@H]21`, the relative growth is inactive: 1.

As to `C[C@@H]1CN([C@@H](C)CO)C(=O)Cc2cc(NC(=O)CCC(F)(F)F)ccc2O[C@@H]1CN(C)Cc1ccc(Oc2ccccc2)cc1`, the relative growth was inactive: 0.99.

For `C=CC[C@H](CC(=O)N(CCO)Cc1ccccc1)C(=O)NC[C@@H](OC(=O)[C@@H](CC=C)Cc1ccc(F)cc1)c1ccccc1`, the relative growth is inactive: 0.899.

In the case of `COc1cccc(-c2ccc3n(c2=O)C[C@@H]2[C@@H](CO)[C@H](C(=O)NCC4CC4)[C@H]3N2S(C)(=O)=O)c1`, the relative growth was inactive: 0.96.

In the case of `C[C@@H]1CN([C@H](C)CO)C(=O)c2cc(NC(=O)CCN3CCOCC3)ccc2O[C@@H]1CN(C)C(=O)Nc1ccc2c(c1)OCO2`, the relative growth is inactive: 1.01.

Consider `C[C@H]1CCCCO[C@H](CN(C)C(=O)Cc2ccccc2)[C@@H](C)CN([C@@H](C)CO)C(=O)c2cc(NC(=O)NC3CCCCC3)ccc2O1`, for which the relative growth is inactive: 0.992.

For the compound `C[C@@H]1CN([C@H](C)CO)C(=O)c2cccc(NC(=O)c3cnccn3)c2O[C@@H]1CN(C)Cc1ccccc1`, the relative growth is inactive: 1.01.

For `C[C@H]1CN([C@@H](C)CO)C(=O)c2cc(NC(=O)NC3CCCCC3)ccc2O[C@H]1CN(C)Cc1ccc(Oc2ccccc2)cc1`, the relative growth is inactive: 1.04.

As to `COCC(=O)N(C)C[C@@H]1Oc2cc(-c3ccc(OC)cc3)ccc2S(=O)(=O)N([C@@H](C)CO)C[C@H]1C`, the relative growth is inactive: 0.977.

Turning to `C[C@@H]1CN([C@H](C)CO)C(=O)Cc2cc(NS(=O)(=O)c3cccs3)ccc2O[C@@H]1CN(C)S(=O)(=O)c1cn(C)cn1`, the relative growth was inactive: 0.955.

As to `Cc1ccc(S(=O)(=O)N(C)C[C@H]2OCCCC[C@H](C)Oc3ccc(NS(=O)(=O)c4ccc(Cl)cc4)cc3C(=O)N([C@@H](C)CO)C[C@H]2C)cc1`, the relative growth was inactive: 1.01.

For the compound `C[C@H](CO)N1C[C@H](C)[C@@H](CN(C)C(=O)Nc2ccc(C(C)(C)C)cc2)OCc2cnnn2CCCC1=O`, the relative growth was inactive: 0.993.

As to `C[C@@H]1CN([C@@H](C)CO)C(=O)c2cccc(NC(=O)Nc3ccc(F)cc3)c2O[C@H]1CN(C)Cc1ccc(C(F)(F)F)cc1`, the relative growth was inactive: 0.906.

As to `COc1ccccc1S(=O)(=O)N[C@@H]1C=C[C@@H](CC(=O)N2CCN(C)CC2)O[C@@H]1CO`, the relative growth is inactive: 0.975.

Turning to `COc1ccc([Si](C)(C)[C@@H]2[C@@H](CC(=O)N3CCC[C@H]3CO)O[C@]3(C(=O)N(Cc4cccc(N5C(=O)c6cccc7cccc5c67)c4)c4ccccc43)[C@H]2C)cc1`, the relative growth was inactive: 0.948.

Take `COc1ccc(NC(=O)Nc2ccc3c(c2)C(=O)N([C@@H](C)CO)C[C@H](C)[C@H](CN(C)C(=O)Nc2cccc4ccccc24)O3)cc1`: the relative growth was inactive: 1.01.

Turning to `COC1=C(OC)C(=O)C(CCCCCCCCCCO)=C(C)C1=O`, the relative growth is inactive: 1.05.

Regarding `C[C@H](CO)N1C[C@H](C)[C@@H](CN(C)Cc2ccc(C(F)(F)F)cc2)OCCCC[C@H](C)Oc2ccc(N(C)C)cc2C1=O`, the relative growth was inactive: 0.999.

For the compound `O=c1cc(-c2ccccc2)[nH]c(=O)[nH]1`, the relative growth is inactive: 1.

For `C[C@H](CO)N1C[C@H](C)[C@@H](CN(C)C(=O)Nc2ccc(-c3ccccc3)cc2)OCc2ccccc2-c2c(n(C)c3ccccc23)C1=O`, the relative growth is inactive: 1.04.

Consider `C[C@@H]1CN([C@@H](C)CO)C(=O)c2cc(NS(C)(=O)=O)ccc2O[C@H]1CN(C)S(C)(=O)=O`, for which the relative growth was inactive: 1.01.

On to `CN1C[C@@H]2CN(C(=O)CO)C[C@@H]2c2ccccc21`, for which the relative growth is inactive: 1.

Consider `COc1ccc(S(=O)(=O)N(C)C[C@H]2OCCCC[C@@H](C)Oc3ccc(NC(=O)NC4CCCCC4)cc3C(=O)N([C@@H](C)CO)C[C@H]2C)cc1`, for which the relative growth was inactive: 1.02.

For `C[C@H]1CN([C@@H](C)CO)C(=O)c2cccc(NS(=O)(=O)c3cccs3)c2O[C@@H]1CN(C)Cc1ccc(-c2ccccc2)cc1`, the relative growth was inactive: 1.01.

Consider `CCCCCCC#C[Si](O[C@H](c1ccccc1)c1cn(Cc2cccc(Cl)c2)nn1)(C(C)C)C(C)C`, for which the relative growth is inactive: 0.991.

With `CO[C@@H]1CN(C)C(=O)c2cc(NC(C)=O)ccc2OC[C@@H](C)N(S(=O)(=O)c2cn(C)cn2)C[C@H]1C`, the relative growth is inactive: 0.984.

For `CC(C)CC#Cc1ccc2c(c1)O[C@H](CN(C)C(=O)c1cnccn1)[C@@H](C)CN([C@@H](C)CO)S2(=O)=O`, the relative growth is inactive: 0.981.

As for `CCc1cccc(C(C)C)c1NC(=O)Nc1ccccc1`, the relative growth is inactive: 1.04.

`C[C@H]1CN([C@@H](C)CO)C(=O)c2cccc(NC(=O)CCCCCC(=O)Nc3ccccc3N)c2O[C@@H]1CN(C)Cc1ccc(Oc2ccccc2)cc1`: the relative growth was inactive: 1.01.

Turning to `Cc1noc(C)c1S(=O)(=O)Nc1ccc2c(c1)C(=O)N([C@@H](C)CO)C[C@@H](C)[C@H](CN(C)S(=O)(=O)c1cccs1)O2`, the relative growth was inactive: 1.

Regarding `C[C@@H]1CCCCO[C@H](CN(C)S(=O)(=O)c2ccc(Cl)cc2)[C@H](C)CN([C@@H](C)CO)C(=O)c2cc(NC(=O)c3ccccc3)ccc2O1`, the relative growth was inactive: 1.05.

With `COc1ccc(S(=O)(=O)N(C)C[C@@H]2Oc3cc(C4=CCCC4)ccc3S(=O)(=O)N([C@@H](C)CO)C[C@@H]2C)cc1`, the relative growth was inactive: 1.04.

On to `C[C@@H]1CCCCO[C@@H](CN(C)C(=O)C2CCCCC2)[C@H](C)CN([C@H](C)CO)C(=O)c2cc(NC(=O)Nc3ccc(F)cc3)ccc2O1`, for which the relative growth is inactive: 1.05.

With `COc1ccc(CN(C)C[C@H]2Oc3ccc(NC(=O)Cn4cnnn4)cc3C(=O)N([C@@H](C)CO)C[C@H]2C)cc1`, the relative growth is inactive: 0.99.

`C[C@@H]1CN([C@@H](C)CO)C(=O)c2cccc(NS(C)(=O)=O)c2O[C@H]1CN(C)C(=O)Nc1ccc2c(c1)OCO2`: the relative growth is inactive: 1.

For the compound `C[C@@H]1CCCCO[C@@H](CN(C)Cc2ccncc2)[C@H](C)CN([C@H](C)CO)C(=O)c2cc(NC(=O)CCC(F)(F)F)ccc2O1`, the relative growth was inactive: 0.975.

As to `C=C1C2CCC3(C)C(c4ccoc4)OC(=O)CC13OC1CC(O)C(C)(C)C(CC(=O)OC)C12C` (stereo not drawn) [3alpha-HYDROXY-3-DEOXYANGOLENSIC ACID METHYL ESTER], the relative growth is inactive: 1.11.

Consider `NC[C@@H]1O[C@H](C23CC4CC(CC(C4)C2)C3)Cc2c1ccc(O)c2O`, for which the relative growth was inactive: 1.

For the compound `C[C@@H]1CN([C@H](C)CO)C(=O)c2cc(NS(C)(=O)=O)ccc2O[C@@H](C)CCCCO[C@H]1CN(C)S(=O)(=O)c1cn(C)cn1`, the relative growth was inactive: 1.01.

For the compound `COCCNCCn1cnc2c1c(=O)[nH]c(=O)n2C`, the relative growth is inactive: 0.918.

Consider `NNC(=O)Cn1nnc(N2CCCC2)n1`, for which the relative growth is inactive: 1.

For `C[C@@H]1CN([C@H](C)CO)C(=O)Cc2cc(NS(=O)(=O)c3cccs3)ccc2O[C@@H]1CN(C)S(=O)(=O)c1ccccc1`, the relative growth was inactive: 0.981.
